# The campaign covered roughly 310,000 compounds. About 14,000 (4.5%) showed an effect of 50% or more. The effect is printed as a negative number. The list shows a part of the results.
# Target: human ether-à-go-go-related gene (hERG) potassium channel (human, UniProt Q12809)
# Experiment: primary screen, population patch clamp on CHO cells stably expressing hERG
# 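Also: peak tail current of the secondary pulse compared with the same well before compound.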
# human ether-à-go-go-related gene (hERG) potassium channel, sequence (Q12809 whole entry, looked up): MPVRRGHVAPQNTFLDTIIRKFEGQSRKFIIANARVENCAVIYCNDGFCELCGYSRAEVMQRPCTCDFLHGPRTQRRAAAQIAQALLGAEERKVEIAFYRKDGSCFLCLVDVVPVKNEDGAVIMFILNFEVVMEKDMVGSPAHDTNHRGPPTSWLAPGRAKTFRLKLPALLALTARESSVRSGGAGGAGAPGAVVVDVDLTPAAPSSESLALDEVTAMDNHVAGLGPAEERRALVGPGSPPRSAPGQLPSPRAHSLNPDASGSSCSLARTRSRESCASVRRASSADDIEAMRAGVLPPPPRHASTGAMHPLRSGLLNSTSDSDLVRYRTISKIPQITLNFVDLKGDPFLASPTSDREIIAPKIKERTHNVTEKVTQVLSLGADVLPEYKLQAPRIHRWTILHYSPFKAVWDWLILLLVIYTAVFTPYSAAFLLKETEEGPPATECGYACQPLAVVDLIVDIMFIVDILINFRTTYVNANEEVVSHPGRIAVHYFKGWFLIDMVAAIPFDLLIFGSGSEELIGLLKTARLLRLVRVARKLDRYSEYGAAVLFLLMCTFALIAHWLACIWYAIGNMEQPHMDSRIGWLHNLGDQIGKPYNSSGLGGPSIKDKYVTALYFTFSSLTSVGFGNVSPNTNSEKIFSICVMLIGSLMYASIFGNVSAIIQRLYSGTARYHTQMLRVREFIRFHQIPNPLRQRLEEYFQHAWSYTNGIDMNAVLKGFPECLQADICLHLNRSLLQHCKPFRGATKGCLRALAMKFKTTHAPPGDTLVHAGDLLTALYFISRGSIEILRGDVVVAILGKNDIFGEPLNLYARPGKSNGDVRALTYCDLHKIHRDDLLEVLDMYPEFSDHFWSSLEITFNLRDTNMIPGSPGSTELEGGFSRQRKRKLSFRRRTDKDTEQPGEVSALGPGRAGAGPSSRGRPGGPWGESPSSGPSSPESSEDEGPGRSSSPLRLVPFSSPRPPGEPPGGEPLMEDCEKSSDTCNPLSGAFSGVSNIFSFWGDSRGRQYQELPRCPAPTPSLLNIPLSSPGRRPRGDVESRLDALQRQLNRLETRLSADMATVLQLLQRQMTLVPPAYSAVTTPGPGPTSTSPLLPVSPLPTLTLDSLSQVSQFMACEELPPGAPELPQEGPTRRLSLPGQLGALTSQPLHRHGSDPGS
row,SMILES,"hERG current change (%, negative = inhibition) at 10uM [%]"
1,CCc1cccc(C)c1NC(=S)NCC1CCN(c2ccc(OC)cc2)C1 (stereo not shown),-5.21
2,O=S(=O)(c1ccc(Br)c2ccccc12)N1CCOCC1,-11.8
3,CCc1ccccc1NC(=O)CSc1nnc(CNC(=O)c2ccco2)n1C,16.9
4,CCOC(OCC)P(=O)(c1ccccc1)c1ccccc1,-10.3
5,CCCCCC(C)NC(=O)CN1C(=O)NC(C)(c2ccc3ccccc3c2)C1=O (stereo not shown),-14.1
6,C/C(=N\NC(=S)NC1CCCCC1)c1ccc(C)o1,-17.3
7,CC1CCCCC1NC(=O)CSCC(=O)O (stereo not shown),10.7
8,COc1ccc(Cc2c(O)nc(SCC(=O)NC34CC5CC(CC(C5)C3)C4)[nH]c2=O)cc1,4.4
9,COc1ccc(N(CC(=O)N2CCCCCC2)S(=O)(=O)c2ccc(OC)c(OC)c2)cc1,-24.4
10,CC(=O)NCCNc1ccc([N+](=O)[O-])cn1,-6.44
11,CCOC(=O)N1CCN(C(=O)C2CC(=O)N(c3ccc(C)cc3)C2)CC1 (stereo not shown),-47.9
12,CN(CCc1nc2ccccc2[nH]1)Cc1nc(CC2CC2)no1,-13.7
13,O=C(CC1COc2ccccc2O1)NCc1ccccc1 (stereo not shown),-16.6
14,CS(=O)(=O)c1ccc2nc(NC(NC(=O)c3ccco3)(C(F)(F)F)C(F)(F)F)sc2c1,-12.1
15,Cc1nn(Cc2ccccc2Cl)c(Cl)c1/C=C/C(=O)OCC(=O)NC1CCS(=O)(=O)C1 (stereo not shown),7.43
16,O=C(Cn1cc(SCc2ccccc2Cl)c2ccccc21)N1CCOCC1,-29.8
17,CCOc1ccc(-c2nc(C#N)c(N3CCN(C)CC3)o2)cc1,-32.5
18,Cc1csc(NC(=O)c2cc(-c3ccccc3)nc3ccccc23)n1,-14.1
19,Cn1cc([N+](=O)[O-])c(C(=O)NCc2ccccc2)n1,7.55
20,CCOC(=O)Cn1nnnc1C(CC)N(Cc1cccs1)Cc1cc2ccc(OC)cc2[nH]c1=O (stereo not shown),-10.4
21,Cc1onc(-c2ccccc2)c1C(=O)N(Cc1ccccn1)Cc1ccccn1,-9.65
22,CC(C)N1C(=O)N(c2ccc(Cl)cc2)C(C)(O)CC1(C)C (stereo not shown),9.09

row,SMILES,"hERG current change (%, negative = inhibition) at 10uM [%]"
1,Cc1cc(N2CCOCC2)n2cc(-c3ccc(F)cc3)nc2n1,-69
2,CC(=O)Nc1ccc(S(=O)(=O)N2CCN=C2SCc2ccc([N+](=O)[O-])cc2)cc1,-29.2
3,C/C(CC(=O)Nc1ccc(OCc2ccccc2)cc1)=N\NC(=O)C(=O)Nc1ccccc1C,4.04
4,Cc1ccc(Nc2ccc3nonc3c2[N+](=O)[O-])cc1,2.88
5,COc1ccc(-n2nc(C(=O)NCC(=O)N3CCN(Cc4ccccc4)CC3)c3ccccc3c2=O)c(OC)c1,-28.6
6,Cc1ccc(NCc2n[nH]c(=S)n2-c2ccccc2)cc1Cl,6.08
7,Cc1ccccc1-c1nnc(SCC(=O)NC2CCCCC2)o1,-10.5
8,CCOC(=O)c1ccc(Nc2cc(C)nc3nc(C)nn23)cc1,-53
9,CCOc1ccc(Br)cc1S(=O)(=O)Nc1ccc(NC(=O)c2ccccc2F)cc1,8.7
10,COC(=O)/C=C1\S/C(=N/NC(=O)c2ccc(OC)cc2)NC1=O,8.98
11,COc1ccc(CNC(=O)COc2ccc(Br)c(C)c2)cc1,9.09
12,Cn1c(=O)c2c(nc(N/N=C/c3ccc(OC(=O)c4ccco4)cc3)n2Cc2ccccc2)n(C)c1=O,-4.61
13,Cc1ccc(NS(=O)(=O)c2ccc(C(=O)N3CCOCC3)cc2)cc1,10.7
14,CC(C)N1CCC(N2CCN(C/C=C/c3ccccc3)CC2CCO)CC1 (stereo not shown),-7.17
15,Cc1sc(-c2ccncc2)nc1OC(=O)c1cc(Cl)cc(Cl)c1,10.2
16,Cc1ccc(NC(=O)Cn2c(=O)cnc3ccccc32)cc1S(=O)(=O)N(C)C,-24.6
17,COc1ccc([C@H]2CC(=O)C=C(c3ccccc3OC)C2)cc1OC,-10.8
18,COc1ccccc1CNC(=O)OCc1nccnc1C(=O)Nc1ccc(Br)cn1,13.8
19,Cc1cc(C)n(CCCC(=O)O)n1,35.2
20,OCC1OC(n2nc3ccccc3n2)C(O)C(O)C1O (stereo not shown),5.81
21,Cc1ccc(C)c(NC(=O)CN(C)C(=O)c2ccc(S(=O)(=O)N3CCCCCC3)cc2)c1,-13.7
22,Cc1oc2ccc(OCc3ccc(Cl)cc3)cc2c1C(=O)O,33.7

row,SMILES,"hERG current change (%, negative = inhibition) at 10uM [%]"
1,COc1cc2c(cc1OC)C(C)N(S(=O)(=O)c1cn(C)c(C)n1)CC2 (stereo not shown),10.5
2,COc1ccc(OC)c(NC(=O)CSc2nc(=O)n(Cc3ccccn3)c3c2CCC3)c1,-30.2
3,O=C(CSc1nnc(-c2ccccc2NC(=O)c2ccccc2)o1)OC1CCCCC1,-17.2
4,Cc1cccc(C)c1NC(=O)CN(C)C(=O)/C=C/c1cccs1,12.6
5,CCCCCOC(=O)C1=C(C)NC(=O)NC1c1ccccc1OCC (stereo not shown),-16
6,C=CCn1c(=O)/c(=C/c2ccc(Cl)cc2)s/c1=C(/C#N)c1nnc2n1CCCCC2,-43
7,COc1ccc(CC(=O)NC2CCCc3ccccc32)cc1 (stereo not shown),11.5
8,COC(=O)C1(CCSC)NC(c2ccc(O)cc2)C2C(=O)N(c3ccc(F)cc3)C(=O)C21 (stereo not shown),-12.2
9,COc1ccc(/C(O)=C2/C(=O)C(=O)N(CCCN3CCOCC3)C2c2ccc(OC)cc2)cc1 (stereo not shown),22.8
10,CCOC(=O)C1=C(CN2CCOCC2)NC(=O)NC1c1cc(C)ccc1C (stereo not shown),-9.37
11,CCC(=O)c1ccc(OCC(=O)N2CCN(S(=O)(=O)c3ccc(Cl)s3)CC2)cc1,-4.53
12,O=C(/C=C/c1cc(Br)ccc1O)c1ccco1,-17.1
13,COC(=O)c1oc2ccccc2c1NC(=O)c1ccccc1O,21
14,O=C(NCc1ccc(Cl)cc1)C(=O)c1cn(CC(=O)N2CCOCC2)c2ccccc12,-2.31
15,Cc1ccc(S(=O)(=O)N(CCCO)Cc2cc3c(C)ccc(C)c3[nH]c2=O)cc1,-45.9
16,CC1(C)CC2(CC(c3ccccc3F)c3cc(Cl)c(O)cc3O2)NC(=S)N1 (stereo not shown),28.9
17,Cc1ccc(-c2nc(CS(=O)CC(=O)N3CCN(c4ccccc4)CC3)c(C)o2)cc1 (stereo not shown),-31.3
18,Cn1cc(Cl)c(C(=O)NNC(=S)NC2CCCCC2)n1,15.4
19,CCNc1nc(NCC)n2c(SCC(=O)Nc3ccc(C)c(C)c3)nnc2n1,-8.06
20,Clc1ccc(SCc2cn3ccccc3n2)cc1,-18.1
21,N/C(=N\OC(=O)c1cccnc1)c1ccccc1Cl,22
22,Cc1c(C(=O)Nc2nnc(C3CC3)s2)oc2c(Cl)cccc12,8.02

row,SMILES,"hERG current change (%, negative = inhibition) at 10uM [%]"
1,O=C(c1ccco1)N1CCN(C(=O)N2CCOCC2)CC1,-6.66
2,O=C(NC(=S)Nc1ccccc1N1CCOCC1)c1ccc(-c2ccccc2F)o1,15.4
3,CC(C)(O)C#Cc1ccc(CN2CCN(Cc3ccccc3)C(CCO)C2)cc1 (stereo not shown),12
4,Cc1ccccc1NC(=O)CSc1ccc(-c2cccnc2)nn1,-29
5,COc1ccc(NC(=O)C(NC(C)=O)C(=O)NCc2ccccc2)cc1 (stereo not shown),15
6,COc1ccc(C(=O)Nc2ccc(-c3n[nH]c(=S)o3)cc2)cc1OC,24
7,CCc1nnc(NC(=O)CCc2nc(C3=CCN(C)CC3)no2)s1,14.1
8,CCOC(=O)CNc1nc2ccccc2n2c(C)nnc12,5.22
9,Cc1cccc(N2CCN(C(=S)NCCc3ccccc3)CC2)c1C,-5.03
10,O=C(N/N=C/c1cccc(Oc2ccccc2)c1)c1cc[n+]([O-])cc1,-5.76
11,CC(C(=O)Nc1nccs1)N1C(=O)c2ccccc2S1(=O)=O (stereo not shown),11.5
12,COc1ccc(N(C)S(=O)(=O)c2c(C)[nH]c(=O)[nH]c2=O)cc1,-2.37
13,CCOC(=O)/C(=N\Nc1ccccc1[N+](=O)[O-])c1csc(Nc2ccccc2)n1,17.2
14,COc1ccc(Cc2c(O)nc(SCC(=O)NC(C)(C)C)[nH]c2=O)cc1,13.7
15,COc1cc(NC(=S)NCCN2CCOCC2)cc(OC)c1,8.78
16,CCOC(=O)c1sc2ncn(C(CC)C(=O)OC)c(=O)c2c1C (stereo not shown),9.35
17,COc1ccc(S(=O)(=O)N2CCCN(CC(=O)Nc3ccc(OC)c(Cl)c3)CC2)cc1,-33.3
18,C=CCOc1ccc(CNc2ccc3[nH]c(=O)[nH]c3c2)cc1OCC,6.6
19,O=C(NCc1ccccc1)C(c1ccccc1)N(C(=O)c1csnn1)C1CCCC1 (stereo not shown),-8.12
20,Cc1cc(=O)oc2cc(OCC(=O)OCC(=O)Nc3ccc4ccccc4c3)ccc12,14.2
21,Cc1ccc2c(c1)C=CC(C)(C)S2(=O)=O,17.3
22,Cc1noc(C)c1C(=O)Nc1cccc(S(=O)(=O)N2CCOCC2)c1,-5.31

# Reference: paper PMC4336329 (PLoS ONE, 2015)
